# Measured values taken from the BET-seq Pho4 binding data (Le et al. 2018).
# The list shows a part of the results. The energies were worked out here from pooled read counts, against the library average; single values are noisy.
# Target: T1, Pho4 (S. cerevisiae) (UniProt P07270)
# T1 sequence: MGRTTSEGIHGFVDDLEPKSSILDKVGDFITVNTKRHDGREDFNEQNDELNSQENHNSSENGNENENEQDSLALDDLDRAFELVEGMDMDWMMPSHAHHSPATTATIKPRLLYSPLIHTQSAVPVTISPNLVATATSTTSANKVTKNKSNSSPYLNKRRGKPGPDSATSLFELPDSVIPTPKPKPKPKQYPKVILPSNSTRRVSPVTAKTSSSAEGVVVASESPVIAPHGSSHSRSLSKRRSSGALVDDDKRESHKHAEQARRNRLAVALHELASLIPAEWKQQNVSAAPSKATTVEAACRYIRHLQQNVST
# Assay: relative binding free energy (BET-seq); higher = weaker binding
# Conditions: reference: library average
row,Sequence,relative binding free energy [kcal/mol]
1,TGGTTCACGTGCGATT,0.25
2,GTAGACACGTGGAAGG,0.08
3,TGTTCCACGTGAGGAT,0.37
4,ATCGCCACGTGTAGGT,0.09
5,AGTAACACGTGGAGGA,-0.07
6,AGGGTCACGTGGTCAT,-0.05
7,GCCTGCACGTGAGGGT,0.19
8,AAGGGCACGTGATGAG,-0.06
9,TTGTCCACGTGATTGG,0.15
10,CATGTCACGTGGGAGG,-0.01
11,ATTTTCACGTGTTCTC,0.32
12,GTTGCCACGTGTAAGG,0.12
13,AGGGGCACGTGTCTTG,-0.15
14,TGACGCACGTGGGCGG,-0.32
15,CGTAGCACGTGTGGAT,-0.11
16,TTTATCACGTGGTACT,-0.03
17,TAAGGCACGTGAATGG,0.11
18,GGGGGCACGTGGGAGG,-0.23
19,TTTGTCACGTGAACTG,0.25
20,GGCAACACGTGGTGGA,0.03
21,GGGAGCACGTGGAGAT,-0.11
22,GGTAACACGTGGATTT,0.06
23,GTCTTCACGTGTATGT,0.38
24,GAAGCCACGTGTGGTG,-0.01
25,GGTGGCACGTGGGCAA,-0.48
26,GTTGGCACGTGACGTA,-0.08

row,Sequence,relative binding free energy [kcal/mol]
1,TGTTTCACGTGCCTTG,0.31
2,TGCTACACGTGTGGTT,0.14
3,CTTGGCACGTGAGGTA,0.11
4,CTGGGCACGTGTATAT,-0.03
5,ATGAGCACGTGGCGGT,-0.05
6,TTCTACACGTGGTTTA,0.13
7,GGAGGCACGTGGTGTA,-0.22
8,GATGGCACGTGGGTCT,-0.18
9,ATAGTCACGTGTACGT,0.1
10,GGCTTCACGTGTAGGC,0.35
11,TCATGCACGTGGGGTA,-0.26
12,ATGTACACGTGTAATA,0.11
13,GGTATCACGTGTAATA,0.16
14,TTATCCACGTGGGTGT,-0.14
15,TCGTTCACGTGTGTAA,0.2
16,GTAGTCACGTGACGTT,0.26
17,TGAATCACGTGTCGAT,0.35
18,TAATACACGTGGAGTT,-0.02
19,ATGTGCACGTGGCGCA,-0.15
20,GATGTCACGTGTGTAG,0.17
21,CTAGCCACGTGGGGGG,-0.37
22,TTAGCCACGTGAGAGT,0.09
23,GGGTACACGTGAAGTT,0.29
24,ATGGTCACGTGATCGT,0.14
25,TGGTGCACGTGCTGGC,-0.21
26,TGTTGCACGTGAAATA,0.2

row,Sequence,relative binding free energy [kcal/mol]
1,GAGAACACGTGGCGGG,0.05
2,TTGTCCACGTGGGTGT,-0.08
3,ATTTACACGTGGTCGT,0
4,GCTGTCACGTGTGTAT,0.23
5,ATTCTCACGTGTGGGA,0.18
6,TGGTTCACGTGGTCTC,0.31
7,ATCTTCACGTGAGTTT,0.26
8,GCGGGCACGTGCGGAG,-0.05
9,ATATGCACGTGTGTAT,-0.07
10,TCTTTCACGTGGGTAA,0.04
11,TGGCGCACGTGGGTCT,-0.19
12,GTTTACACGTGTGTGG,0.22
13,TTAAGCACGTGATGGT,0.02
14,TATAGCACGTGTCGTT,-0.06
15,GGGAGCACGTGGAGGG,-0.17
16,TAGATCACGTGAGTCG,0.23
17,ATGTGCACGTGACGTT,0.09
18,TAGAGCACGTGGTTGT,-0.12
19,AATTTCACGTGATAGG,0.36
20,TGTATCACGTGACGAG,0.16
21,GAGGTCACGTGGAAGG,0.21
22,TTGGTCACGTGCAGCT,0.07
23,CTAGTCACGTGCGTTG,0.07
24,TCTTTCACGTGTATCT,0.35
25,GTATGCACGTGTTTGT,0.02
26,CGGGGCACGTGGTCTT,-0.32

row,Sequence,relative binding free energy [kcal/mol]
1,TGCCGCACGTGTGTGG,-0.07
2,GTATCCACGTGTAGGT,0.18
3,ATAGGCACGTGAGGGA,0.14
4,ATTGACACGTGGATAT,0.16
5,TGTGCCACGTGGGTTG,-0.21
6,GATGTCACGTGTGAGA,0.37
7,TTTCGCACGTGTCGTT,0
8,ATATTCACGTGTATAA,0.13
9,GAGCTCACGTGTTGGA,0.41
10,GCGGGCACGTGATTGG,-0.02
11,TTAGACACGTGGAGGG,0
12,CATGACACGTGGTTTA,0.04
13,TAGGACACGTGTGTAG,0.06
14,GTGAGCACGTGGTTTC,-0.08
15,AGAATCACGTGGAGGA,0.21
16,ATGTGCACGTGGTGAA,-0.26
17,AGCATCACGTGTTAGG,0.16
18,TTTAGCACGTGAGGCC,0.2
19,TGGAGCACGTGATTGT,0.01
20,GCGACCACGTGGTGTT,0.03
21,GTGTACACGTGTTATG,0.17
22,GGTGGCACGTGGGCCC,-0.09
23,ACGGGCACGTGTATGT,-0.1
24,AGTAGCACGTGATGGG,0.02
25,GGCTTCACGTGTGAGG,0.39
26,GGGGTCACGTGCGTAA,0.11

row,Sequence,relative binding free energy [kcal/mol]
1,TGCGGCACGTGTGGAC,-0.08
2,ATGTGCACGTGCGTAT,-0.08
3,CCGTGCACGTGGTTGT,-0.05
4,TTAGTCACGTGATCTG,0.03
5,TGACTCACGTGGAGGG,-0.01
6,AGATGCACGTGGTGTT,-0.11
7,GACATCACGTGGGTTT,0.27
8,TCTGTCACGTGGGTTT,0.04
9,AGGTGCACGTGCTGCG,-0.22
10,AGGGTCACGTGCTGCT,0.09
11,GGTGACACGTGCGTGT,0.01
12,TTTGGCACGTGGGAAT,-0.19
13,AGTTTCACGTGGATCA,0.22
14,TATAACACGTGTGCGG,-0.05
15,TTTAACACGTGTGGGA,0.06
16,TGGGTCACGTGTACGC,0.1
17,GGTTTCACGTGTAATC,0.31
18,GTGTACACGTGGGTTG,-0.09
19,TGTGACACGTGGCAGG,-0.05
20,TTGTGCACGTGGTATA,-0.15
21,AATGGCACGTGGGCTG,-0.21
22,GCGTGCACGTGCGGGG,-0.09
23,CTGGGCACGTGAGGTG,0.03
24,ATCATCACGTGGGTAG,0.15
25,AAGTTCACGTGGTATC,0.37
26,GTTAACACGTGTGGAA,0.22

row,Sequence,relative binding free energy [kcal/mol]
1,GGCTGCACGTGAGGCG,0.23
2,ATATACACGTGGGAAG,-0.03
3,CTAATCACGTGTTTGT,0.12
4,GTTGACACGTGGGGGA,-0.06
5,TACGCCACGTGTGGGT,-0.02
6,TGTTTCACGTGGCGAT,0.24
7,TTGGTCACGTGAAGAC,0.45
8,GGTTGCACGTGTCGAT,0.21
9,AATTGCACGTGAGATT,0.27
10,TTGGGCACGTGCTGTC,-0.14
11,GTTAGCACGTGTTTGT,-0.06
12,AGATACACGTGTTGTT,0.11
13,AGGGGCACGTGATAAA,-0.06
14,CTGTTCACGTGTGGGT,0.38
15,TAGTTCACGTGCAAGG,0.28
16,ATAGTCACGTGGGGAT,-0.02
17,GGACTCACGTGTTTGG,0.38
18,AGGATCACGTGTTTAT,0.23
19,CTAGACACGTGGGGTT,-0.17
20,CTGCTCACGTGCGTGG,0.15
21,TATCACACGTGGAGGT,0.1
22,CTTTGCACGTGTAGTA,-0.06
23,AGGGGCACGTGCTGAG,-0.28
24,CGGTCCACGTGTGTTT,0.05
25,TGTAACACGTGGTAGC,0.09
26,ATGCACACGTGTGGTT,0.01

row,Sequence,relative binding free energy [kcal/mol]
1,AGTGCCACGTGTTGTT,-0.01
2,GGCTTCACGTGGATGG,0.35
3,TAGGACACGTGGTGGA,0.01
4,AGGTGCACGTGTGCAT,-0.25
5,CTGCGCACGTGGTGGA,-0.23
6,GGCAGCACGTGTTGAG,-0.05
7,GATTGCACGTGCGGGG,0.08
8,TGATGCACGTGTGCGG,-0.14
9,TATGGCACGTGACGGA,-0.07
10,CGTTTCACGTGGGGAC,0.23
11,CGCTGCACGTGTAGGG,0.03
12,TAATACACGTGGGAGT,0.09
13,GGGATCACGTGAGGAT,0.45
14,GAGTGCACGTGTAATG,0.12
15,AGGGGCACGTGAGACA,0.04
16,CATAGCACGTGGTTTT,-0.06
17,TGGTCCACGTGGTTCG,-0.05
18,CGAGGCACGTGTTGTA,-0.12
19,ATTCGCACGTGGGTGA,-0.32
20,TTACGCACGTGATGGG,0.14
21,AGTCTCACGTGATGGT,0.27
22,CGGTTCACGTGTCGGT,0.25
23,GGGGACACGTGATTTT,0.13
24,GATTGCACGTGGATGT,0.02
25,TGTCGCACGTGAGTTC,0.24
26,TACGGCACGTGGATGG,0.02

row,Sequence,relative binding free energy [kcal/mol]
1,CTGTACACGTGCTTGT,0.05
2,GGTTACACGTGTGGCC,0.3
3,CATGGCACGTGTTTTA,-0.21
4,TCATACACGTGATGGG,0.14
5,CGTGTCACGTGTAGTC,-0.01
6,TTGTTCACGTGGGAGT,0.28
7,CTATACACGTGGGGTG,-0.15
8,TTGTGCACGTGAATAT,0.31
9,GTCGTCACGTGAGGGA,0.18
10,TTGCGCACGTGCGAGG,-0.25
11,GAAGCCACGTGGGGCG,-0.14
12,GTGGCCACGTGAGGAT,0.17
13,TCACGCACGTGTGAGG,0.02
14,GTCTTCACGTGGTGGC,0.33
15,AGGGACACGTGACGGT,0.09
16,TCTGGCACGTGGGTGC,-0.28
17,TGTAACACGTGTAAGG,0.24
18,AGTTCCACGTGATGTG,0.21
19,GTGCACACGTGCTGGG,-0.04
20,CGTTGCACGTGGTAAA,-0.06
21,GTATGCACGTGAGTCT,0.24
22,ATGACCACGTGTGTTT,0.1
23,AGGGTCACGTGGGAAC,-0.02
24,TGTCGCACGTGTTAGT,0
25,AGCTACACGTGGTTTG,0.01
26,TGGCTCACGTGAGCTT,0.42

row,Sequence,relative binding free energy [kcal/mol]
1,AATTGCACGTGAGGAT,0.09
2,GTCTGCACGTGGTGAA,0.01
3,GGGTCCACGTGAGGGG,0.24
4,AGAAGCACGTGATGCG,0.12
5,GCTGGCACGTGGCTGG,-0.06
6,ATGAGCACGTGAACGG,0.24
7,GTGCCCACGTGTGTGG,-0.02
8,GTTCGCACGTGTGTTA,0.03
9,TAGGGCACGTGAGAAG,0.27
10,TATGACACGTGAAGGT,0.25
11,CGATTCACGTGAAGTG,0.3
12,CAAGTCACGTGGTTGG,0.2
13,TATTGCACGTGTGTGT,0.02
14,ACCGTCACGTGGGGTG,-0.1
15,GGTTTCACGTGAGAGG,0.32
16,GGTTCCACGTGGTGTG,0.08
17,GGGCTCACGTGGTATT,0.17
18,TGTAGCACGTGTTGCT,-0.04
19,AGACTCACGTGGTGGG,0.19
20,TGTCTCACGTGTGTGC,0.21
21,ATAATCACGTGATGGT,0.24
22,CATAGCACGTGTAGGT,0.05
